We go through one molecule from PMC8047017, “Acetylated tau inhibits chaperone-mediated autophagy and promotes tau pathology propagation in mice” (Nature Communications, 2021).

The target in this test is T1, human hsc70 (immobilised in the tau binding ELISA) (human, UniProt P11142).
T1 construct: heat shock cognate protein of 70 kDa (hsc70), human; 1 mM ADP was present in the ELISA
The test is described as follows: ELISA; 1 µM human hsc70 immobilised on 96-well plates; tau in binding buffer at pH 8 (25 mM Tris), also pH 6 (MES) and pH 7.4 (HEPES), 1 mM ADP, 3 h at RT; detected with anti-tau. The note with it: both partners purified.

T1 sequence (P11142 whole entry): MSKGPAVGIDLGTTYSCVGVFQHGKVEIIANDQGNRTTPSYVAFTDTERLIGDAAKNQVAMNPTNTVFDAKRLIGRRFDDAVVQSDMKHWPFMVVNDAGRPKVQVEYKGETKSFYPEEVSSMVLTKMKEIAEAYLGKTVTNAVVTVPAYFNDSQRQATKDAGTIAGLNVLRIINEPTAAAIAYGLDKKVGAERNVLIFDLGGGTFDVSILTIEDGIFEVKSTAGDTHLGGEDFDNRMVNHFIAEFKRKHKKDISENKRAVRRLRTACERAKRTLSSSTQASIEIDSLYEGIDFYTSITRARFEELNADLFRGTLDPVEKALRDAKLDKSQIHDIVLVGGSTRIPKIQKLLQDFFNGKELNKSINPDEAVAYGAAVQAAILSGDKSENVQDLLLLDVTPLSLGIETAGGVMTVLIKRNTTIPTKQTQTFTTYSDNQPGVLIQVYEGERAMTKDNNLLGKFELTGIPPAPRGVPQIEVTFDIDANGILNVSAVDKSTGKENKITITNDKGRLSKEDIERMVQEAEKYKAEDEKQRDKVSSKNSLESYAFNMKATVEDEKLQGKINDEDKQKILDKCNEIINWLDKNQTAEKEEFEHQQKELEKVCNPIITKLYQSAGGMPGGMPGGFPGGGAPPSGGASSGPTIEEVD

B1: 4R0N tau (natural protein)
chain: not shown
notes: also called WT tau; unmodified tau
As to B1, the binding result is “binds”.
